Assay results published in US11618753B2 (priority 2018, dated 2023).
Structures can show the parent of a compound that is named as a salt.

These molecules were tested on MLKL phosphorylation, HT29-L23 human colorectal adenocarcinoma cells (assay: cells). Conditions: read-out: pMLKL HCS Cell Assay (IC50, uM).

| Structure (SMILES) | IC50 |
| --- | --- |
| COc1ncc(-c2cc(CNS(C)(=O)=O)c3c(N)ncnn23)cc1C(=O)N[C@@H]1CN(C(=O)C2CC(F)(F)C2)C[C@@H]1F [Example 494, 5-[4-amino-5-(methanesulfonamidomethyl)pyrrolo[2,1-f][1,2,4]triazin-7-yl]-N-[(3R,4S)-1-(3,3-difluorocyclobutanecarbonyl)-4-fluoropyrrolidin-3-yl]-2-methoxypyridine-3-carboxamide] | 0.139 µM |
| Nc1ncnn2c(-c3cncc(C(=O)NCC[C@@H](O)c4ccc(Cl)cc4)c3)cc(C(F)(F)F)c12 [Example 274, 5-[4-amino-5-(trifluoromethyl)pyrrolo[2,1-f][1,2,4]triazin-7-yl]-N-[(3R)-3-(4-chlorophenyl)-3-hydroxypropyl]pyridine-3-carboxamide] | 0.026 µM |
| CC(CCNC(=O)c1cccc(-c2cc(C(F)(F)F)c3c(N)ncnn23)c1)c1ccccc1 (centres unmarked) [Example 2, 3-[4-amino-5-(trifluoromethyl)pyrrolo[2,1-f][1,2,4]triazin-7-yl]-N-(3-phenylbutyl)benzamide] | 0.031 µM |
| Cc1ncc(-c2cc(C(F)(F)F)c3c(N)ncnn23)cc1C(=O)N[C@@H]1CN(C(=O)CC(C)C)C[C@@H]1F [Example 364, 5-[4-amino-5-(trifluoromethyl)pyrrolo [2,1-f][1,2,4]triazin-7-yl]-N-[(3R,4S)-4-fluoro-1-(3-methylbutanoyl)pyrrolidin-3-yl]-2-methylpyridine-3-carboxamide, TFA] | 0.01 µM |
| COc1ncc(-c2cc(C(F)(F)F)c3c(N)ncnn23)cc1C(=O)Nc1cn(Cc2ccc(F)cc2)cn1 [Example 1801, 5-(4-amino-5-(trifluoromethyl)pyrrolo[2,1-f][1,2,4]triazin-7-yl)-N-(1-(4-fluorobenzyl)-1H-imidazol-4-yl)-2-methoxynicotinamide] | 0.0079 µM |
| COc1ncc(-c2cc(CN3CCC(F)(F)CC3)c3c(N)ncnn23)cc1C(=O)N[C@@H]1CN(C(=O)OCC(F)(F)C(F)F)C[C@@H]1F [Example 1520, 2,2,3,3-tetrafluoropropyl (3R,4S)-3-(5-{4-amino-5-[(4,4-difluoropiperidin-1-yl)methyl]pyrrolo[2,1-f][1,2,4]triazin-7-yl}-2-methoxypyridine-3-amido)-4-fluoropyrrolidine-1-carboxylate] | 0.0033 µM |
| Cc1c(F)cc(-c2cc(CN3CC(F)(F)C3)c3c(N)ncnn23)cc1C(=O)N[C@@H]1CN(C(=O)OC(C)(C)C)C[C@@H]1F [Example 1561, tert-butyl (3R,4S)-3-(5-{4-amino-5-[(3,3-difluoroazetidin-1-yl)methyl]pyrrolo[2,1-f][1,2,4]triazin-7-yl}-3-fluoro-2-methylbenzamido)-4-fluoropyrrolidine-1-carboxylate] | 0.00067 µM |
| Cc1ccc(-c2cc(C(F)(F)F)c3c(N)ncnn23)cc1C(=O)N[C@@H]1CN(C(=O)c2ncccc2F)C[C@@H]1F [Example 1010, 5-[4-amino-5-(trifluoromethyl)pyrrolo[2,1-f][1,2,4]triazin-7-yl]-N-[(3R,4S)-4-fluoro-1-(3-fluoropyridine-2-carbonyl)pyrrolidin-3-yl]-2-methylbenzamide] | 0.0096 µM |
| CC(C)(C)C(=O)N1C[C@H](F)[C@H](NC(=O)c2cccc(-c3cc(CN4CC(F)(F)C4)c4c(N)ncnn34)c2)C1 [Example 1170, 3-{4-amino-5-[(3,3-difluoroazetidin-1-yl)methyl]pyrrolo[2,1-f][1,2,4]triazin-7-yl}-N-[(3R,4S)-1-(2,2-dimethylpropanoyl)-4-fluoropyrrolidin-3-yl]benzamide] | 0.00074 µM |
| COc1ncc(-c2cc(C(F)(F)F)c3c(N)ncnn23)cc1C(=O)N[C@@H]1CN(CC(O)c2ccccc2)C[C@@H]1F (stereo partly drawn) [Example 465, 5-[4-amino-5-(trifluoromethyl)pyrrolo[2,1-f][1,2,4]triazin-7-yl]-N-[(3R,4S)-4-fluoro-1-(2-hydroxy-2-phenylethyl)pyrrolidin-3-yl]-2-methoxypyridine-3-carboxamide] | 0.388 µM |
| Cc1cc(-c2cc(C(F)(F)F)c3c(N)ncnn23)cc(C(=O)N[C@@H]2CN(C(=O)C(C)C(F)(F)F)C[C@@H]2F)c1Cl (stereo partly drawn) [Example 718, 5-[4-amino-5-(trifluoromethyl)pyrrolo[2,1-f][1,2,4]triazin-7-yl]-2-chloro-N-[(3R,4S)-4-fluoro-1-(3,3,3-trifluoro-2-methylpropanoyl)pyrrolidin-3-yl]-3-methylbenzamide] | 0.0073 µM |
| COc1ncc(-c2cc(C(F)(F)F)c3c(N)ncnn23)cc1C(=O)NC1CN(Cc2cccc3ccccc23)CC1F (racemic) [Example 240, 5-[4-amino-5-(trifluoromethyl)pyrrolo[2,1-f][1,2,4]triazin-7-yl]-N-{4-fluoro-1-[(naphthalen-1-yl)methyl]pyrrolidin-3-yl}-2-methoxypyridine-3-carboxamide] | 0.271 µM |
| CC(C)(O)C(=O)N1C[C@H](F)[C@H](NC(=O)c2cc(-c3cc(C(F)(F)F)c4c(N)ncnn34)ccc2OC(F)F)C1 [Example 1085, 5-[4-amino-5-(trifluoromethyl)pyrrolo[2,1-f][1,2,4]triazin-7-yl]-2-(difluoromethoxy)-N-[(3R,4S)-4-fluoro-1-(2-hydroxy-2-methylpropanoyl)pyrrolidin-3-yl]benzamide] | 0.05 µM |
| COc1ncc(-c2cc(CN3CCC(F)(F)CC3)c3c(N)ncnn23)cc1C(=O)N[C@@H]1CN(C(=O)OC(C(C)(C)C)C(F)(F)F)C[C@@H]1F (stereo partly drawn) [Example 1530, 1,1,1-trifluoro-3,3-dimethylbutan-2-yl (3R,4S)-3-(5-{4-amino-5-[(4,4-difluoropiperidin-1-yl)methyl]pyrrolo[2,1-f][1,2,4]triazin-7-yl}-2-methoxypyridine-3-amido)-4-fluoropyrrolidine-1-carboxylate] | 0.044 µM |
| CCOc1ccc(-c2cc(C(F)(F)F)c3c(N)ncnn23)cc1C(=O)N[C@@H]1CN(C(=O)C(C)C(F)(F)F)C[C@@H]1F (stereo partly drawn) [Example 1111, 5-[4-amino-5-(trifluoromethyl)pyrrolo[2,1-f][1,2,4]triazin-7-yl]-2-ethoxy-N-[(3R,4S)-4-fluoro-1-(3,3,3-trifluoro-2-methylpropanoyl)pyrrolidin-3-yl]benzamide] | 0.033 µM |
| Cc1cc(F)c(-c2cc(C(F)(F)F)c3c(N)ncnn23)cc1C(=O)N[C@@H]1CN(C(=O)c2ncccc2Br)C[C@@H]1F [Example 854, 5-[4-amino-5-(trifluoromethyl)pyrrolo[2,1-f][1,2,4]triazin-7-yl]-N-[(3R,4S)-1-(3-bromopyridine-2-carbonyl)-4-fluoropyrrolidin-3-yl]-4-fluoro-2-methylbenzamide] | 0.022 µM |
| COc1ncc(-c2cc(C(F)(F)F)c3c(N)ncnn23)cc1C(=O)NC1CN(Cc2cncc(Br)c2)CC1F (racemic) [Example 239, 5-[4-amino-5-(trifluoromethyl)pyrrolo[2,1-f][1,2,4]triazin-7-yl]-N-{1-[(5-bromopyridin-3-yl)methyl]-4-fluoropyrrolidin-3-yl}-2-methoxypyridine-3-carboxamide] | 0.068 µM |
| Nc1ncnn2c(-c3ccc(Cl)c(C(=O)N[C@@H]4CN(C(=O)CC(C(F)(F)F)C(F)(F)F)C[C@@H]4F)c3)cc(CN3CCC(F)(F)CC3)c12 [Example 1138, 5-{4-amino-5-[(4,4-difluoropiperidin-1-yl)methyl]pyrrolo[2,1-f][1,2,4]triazin-7-yl}-2-chloro-N-[(3R,4S)-4-fluoro-1-[4,4,4-trifluoro-3-(trifluoromethyl)butanoyl]pyrrolidin-3-yl]benzamide] | 0.00055 µM |
| COc1ccc(-c2cc(C(F)(F)F)c3c(N)ncnn23)cc1C(=O)Nc1cnn(Cc2ccccc2)c1 [Example 65, 5-[4-amino-5-(trifluoromethyl)pyrrolo[2,1-f][1,2,4]triazin-7-yl]-N-(1-benzyl-1H-pyrazol-4-yl)-2-methoxybenzamide] | 0.0035 µM |
| CC(C(=O)N1C[C@H](F)[C@H](NC(=O)c2cc(-c3cc(C(F)(F)F)c4c(N)ncnn34)c(F)cc2Cl)C1)C(F)(F)F (stereo partly drawn) [Example 884, 5-[4-amino-5-(trifluoromethyl)pyrrolo[2,1-f][1,2,4]triazin-7-yl]-2-chloro-4-fluoro-N-[(3R,4S)-4-fluoro-1-(3,3,3-trifluoro-2-methylpropanoyl)pyrrolidin-3-yl]benzamide] | 0.0066 µM |
| Cc1c(F)cc(-c2cc(C(F)(F)F)c3c(N)ncnn23)cc1C(=O)N[C@@H]1CN(C(=O)c2ccncc2F)C[C@@H]1F [Example 1323, 5-[4-amino-5-(trifluoromethyl)pyrrolo-[2,1-f][1,2,4]triazin-7-yl]-3-fluoro-N-[(3R,4S)-4-fluoro-1-(3-fluoropyridine-4-carbonyl)pyrrolidin-3-yl]-2-methyl-benzamide] | 0.0049 µM |
| Cc1ncc(-c2cc(C(F)(F)F)c3c(N)ncnn23)cc1C(=O)Nc1ncn(Cc2ccccc2)c1C [Example 1797, 5-(4-amino-5-(trifluoromethyl)pyrrolo[2,1-f][1,2,4]triazin-7-yl)-N-(1-benzyl-5-methyl-1H-imidazol-4-yl)-2-methylnicotinamide] | 0.0084 µM |
| COc1ncc(-c2cc(Cn3cnc4ccccc43)c3c(N)ncnn23)cc1C(=O)N[C@@H]1CN(C(=O)C2CC(F)(F)C2)C[C@@H]1F [Example 1708, 5-(5-((1H-benzo[d]imidazol-1-yl)methyl)-4-aminopyrrolo[2,1-f][1,2,4]triazin-7-yl)-N-((3R,4S)-1-(3,3-difluorocyclobutane-1-carbonyl)-4-fluoropyrrolidin-3-yl)-2-methoxynicotinamide] | 0.063 µM |
| CCC(O)(C(=O)N1C[C@H](F)[C@H](NC(=O)c2cc(-c3cc(C(F)(F)F)c4c(N)ncnn34)cc(F)c2C)C1)C(F)(F)F (stereo partly drawn) [Example 1321, 5-[4-amino-5-(trifluoromethyl)pyrrolo-[2,1-f][1,2,4]triazin-7-yl]-3-fluoro-N-[(3R,4S)-4-fluoro-1-[2-hydroxy-2-(trifluoromethyl)butanoyl]pyrrolidin-3-yl]-2-methylbenzamide] | 0.0023 µM |
| COc1ncc(-c2cc(C(F)(F)F)c3c(N)ncnn23)cc1C(=O)N[C@@H]1CN(CC(C)(O)C(F)(F)F)C[C@@H]1F (stereo partly drawn) [Example 1820, 5-(4-amino-5-(trifluoromethyl)pyrrolo[2,1-f][1,2,4]triazin-7-yl)-N-((3R,4S)-4-fluoro-1-(3,3,3-trifluoro-2-hydroxy-2-methylpropyl)pyrrolidin-3-yl)-2-methoxynicotinamide] | 0.013 µM |
| COc1ncc(-c2cc(C(=O)N(C)C)c3c(N)ncnn23)cc1C(=O)N1CCC[C@@H](Cc2ccc(F)cc2)C1 [Example 470] | 0.051 µM |
